Experimental findings from PMC7391767, “Molecular mechanisms underlying menthol binding and activation of TRPM8 ion channel” (Nature Communications, 2020) are described below.

One assay has as its target T1, TRPM8 I846V (Mus musculus, UniProt Q8R4D5, I846V).
T1 construct: expressed in transfected cells; host or cells: HEK293T
Briefly: whole-cell patch-clamp and thermodynamic mutant cycle analysis. In kind it is cell-based. As to conditions: read-out: Kd, single recording. As to the method: Murine TRPM8 was used in this study. Point mutations were made by Fast Mutagenesis Kit V2 (SBS Genetech). Primers used to generate point mutations are summarized in Supplementary Table 2. All mutations were confirmed by sequencing.
HEK293T cells purchased from Kunming Cell Bank, Kunming Institute of Zoology, Chinese Academy of Sciences (ATCC, CRL-3216) were cultured in Dulbecco’s modified Eagle’s medium supplemented with 20 mM L-glutamine and 10% fetal bovine serum. Cells were transiently transfected with cDNA constructs by Lipofectamine 3000 (Life Technologies) following the manufacturer’s protocol. Patch-clamp recordings were performed 1–2 days after transfection.
Patch-clamp recordings were performed with a HEKA EPC10 amplifier controlled by PatchMaster software (HEKA). Whole-cell recordings were performed at ±80 mV. […] For single-channel recordings, patch pipettes were fire-polished to a higher resistance of 6-to-10 MΩ and then recorded in the inside-out configuration. […]
(§1) Data from whole-cell recordings were analyzed in Igor Pro version 6.1 (WaveMatrix). […]
To perform thermodynamic cycle analysis, Kd values of four channel-ligand combinations (WT channel, menthol: Kd _1; Mutant channel, menthol: Kd _2; WT channel, menthol analog: Kd _3; Mutant channel, menthol analog: Kd _4) were determined separately. […] LnΩ was calculated by Eq. (2) as[51]2 LnΩ=LnKd_1⋅Kd_4/Kd_2⋅Kd_3.
Background: In patch-clamp work, channel activity is measured electrically.

In a further assay the target is T2, wild-type TRPM8 (Mus musculus, UniProt Q8R4D5).
T2 construct: expressed in transfected cells; host or cells: HEK293T
Nature of the assay: whole-cell patch-clamp recording of ligand activation. In kind it is cell-based. As to conditions: WT; read-out: Kd, single recording. As to the method:
Murine TRPM8 was used in this study. Point mutations were made by Fast Mutagenesis Kit V2 (SBS Genetech). Primers used to generate point mutations are summarized in Supplementary Table 2.
Cells were transiently transfected with cDNA constructs by Lipofectamine 3000 (Life Technologies) following the manufacturer’s protocol. Patch-clamp recordings were performed 1–2 days after transfection.
Patch-clamp recordings were performed with a HEKA EPC10 amplifier controlled by PatchMaster software (HEKA). Whole-cell recordings were performed at ±80 mV. Patch pipettes were prepared from borosilicate glass and fire-polished to resistance of ~4 MΩ. For whole-cell recording, serial resistance was compensated by 60%. For single-channel recordings, patch pipettes were fire-polished to a higher resistance of 6-to-10 MΩ and then recorded in the inside-out configuration. To maximize the chance of obtaining a patch with only one channel, single-channel recordings were performed about 8 h after transfection. A solution with 130 mM NaCl, 10 mM glucose, 0.2 mM EDTA, and 3 mM HEPES (pH 7.2) was used in both bath and pipette for either whole-cell or single-channel recordings. Membrane potential was clamped at +80 mV for single-channel recordings. Current was sampled at 10 kHz and filtered at 2.9 kHz. […]
as §1

For part of its entries the source gives two or more results. The other results are left out here. An entry can have further records. The records of an entry appear to be repeats (runs, samples, wells or individuals); one of them may be the mean. Records carry a tag for their origin. Letters count within one entry.

T2 sequence (Q8R4D5 whole entry): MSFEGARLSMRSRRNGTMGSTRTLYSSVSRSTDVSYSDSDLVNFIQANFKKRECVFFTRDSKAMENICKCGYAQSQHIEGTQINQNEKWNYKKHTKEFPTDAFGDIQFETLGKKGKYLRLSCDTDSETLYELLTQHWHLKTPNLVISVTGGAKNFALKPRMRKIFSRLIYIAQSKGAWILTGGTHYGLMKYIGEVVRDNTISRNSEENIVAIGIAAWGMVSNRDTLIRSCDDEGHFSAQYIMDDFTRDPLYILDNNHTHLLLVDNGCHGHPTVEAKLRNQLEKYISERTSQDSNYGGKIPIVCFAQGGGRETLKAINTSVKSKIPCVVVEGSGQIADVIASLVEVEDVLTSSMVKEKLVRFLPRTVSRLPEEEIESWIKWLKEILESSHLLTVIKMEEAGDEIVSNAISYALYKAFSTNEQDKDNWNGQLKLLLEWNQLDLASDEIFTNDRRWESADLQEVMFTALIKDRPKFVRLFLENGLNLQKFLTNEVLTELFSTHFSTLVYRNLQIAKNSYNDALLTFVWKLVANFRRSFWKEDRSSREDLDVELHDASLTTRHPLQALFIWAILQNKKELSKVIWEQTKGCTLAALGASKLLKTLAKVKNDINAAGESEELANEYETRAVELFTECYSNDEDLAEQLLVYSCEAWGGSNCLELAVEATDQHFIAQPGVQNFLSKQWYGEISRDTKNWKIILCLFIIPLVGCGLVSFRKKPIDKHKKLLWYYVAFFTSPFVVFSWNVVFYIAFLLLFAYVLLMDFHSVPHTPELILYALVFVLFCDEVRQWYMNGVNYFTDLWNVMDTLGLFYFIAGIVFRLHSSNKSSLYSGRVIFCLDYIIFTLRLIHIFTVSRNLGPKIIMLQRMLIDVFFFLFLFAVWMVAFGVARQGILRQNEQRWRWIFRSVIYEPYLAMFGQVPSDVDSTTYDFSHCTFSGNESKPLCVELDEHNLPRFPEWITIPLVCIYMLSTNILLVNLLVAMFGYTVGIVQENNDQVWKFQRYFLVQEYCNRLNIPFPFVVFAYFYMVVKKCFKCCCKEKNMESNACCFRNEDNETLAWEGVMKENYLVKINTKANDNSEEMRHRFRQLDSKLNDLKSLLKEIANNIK
T1 sequence (Q8R4D5 whole entry I846V): as the sequence (Q8R4D5 whole entry) above, with I846V counted along it

A word on the Kd: it is a measure of binding affinity in units of concentration. As to `C=C(C)[C@@H]1CC[C@@H](C)C[C@H]1O` [isopulegol], the dissociation constant (Kd) on TRPM8 I846V is 9.76 mM, 689 µM, 3.17 mM, 2.75 mM [lines of one column].
For the compound `CC(C)[C@@H]1CC[C@@H](C)C[C@H]1O` [menthol, (−)-menthol], the dissociation constant (Kd) on wild-type TRPM8 was 2.04 mM, 1.98 mM, 350 µM, 685 µM, 256 µM [table A] and 1.61 mM, 2.14 mM, 352 µM, 658 µM, 71.2 µM [table B].
